{"source": "the BET-seq Pho4 binding data (Le et al. 2018)", "note": "This is one part of the list. Values were computed here from the reads of four pooled replicates and scatter widely."}
{"molecular_target": "T1, Pho4 (S. cerevisiae) (UniProt P07270)", "T1 sequence": "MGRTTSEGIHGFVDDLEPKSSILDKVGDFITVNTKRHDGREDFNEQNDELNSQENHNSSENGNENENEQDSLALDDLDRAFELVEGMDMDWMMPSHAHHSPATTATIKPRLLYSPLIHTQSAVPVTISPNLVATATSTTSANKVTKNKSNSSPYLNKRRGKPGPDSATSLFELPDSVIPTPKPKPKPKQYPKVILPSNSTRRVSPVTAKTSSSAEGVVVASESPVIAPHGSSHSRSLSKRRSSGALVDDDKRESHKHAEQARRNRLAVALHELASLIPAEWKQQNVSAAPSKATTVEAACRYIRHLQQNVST", "experiment": "relative binding free energy (BET-seq); higher = weaker binding", "details": "reference: library average", "units": {"relative binding free energy": "kcal/mol"}}
{"sequence": "TTGGCCACGTGAAGTT", "relative binding free energy": 0.23}
{"sequence": "GATGTCACGTGTTTGG", "relative binding free energy": 0.32}
{"sequence": "GTTGGCACGTGTCTTA", "relative binding free energy": -0.1}
{"sequence": "GGCATCACGTGGGTCT", "relative binding free energy": 0.07}
{"sequence": "GCGGGCACGTGATGGT", "relative binding free energy": 0.09}
{"sequence": "CGGTACACGTGGGCGT", "relative binding free energy": -0.09}
{"sequence": "TGTGTCACGTGCTAGT", "relative binding free energy": -0.1}
{"sequence": "TGTGGCACGTGAGCGT", "relative binding free energy": -0.09}
{"sequence": "TGGTTCACGTGTCGCA", "relative binding free energy": 0.43}
{"sequence": "TATGTCACGTGGAACG", "relative binding free energy": 0.16}
{"sequence": "TATTTCACGTGAAGGA", "relative binding free energy": 0.38}
{"sequence": "ATTATCACGTGGTTCT", "relative binding free energy": 0.05}
{"sequence": "TGGGGCACGTGCGGCG", "relative binding free energy": -0.16}
{"sequence": "GGTGCCACGTGGCGCG", "relative binding free energy": -0.17}
{"sequence": "TTTGGCACGTGGTTCT", "relative binding free energy": -0.09}
{"sequence": "AGTATCACGTGAAAAT", "relative binding free energy": 0.47}
{"sequence": "GGTGTCACGTGACTGG", "relative binding free energy": 0.25}
{"sequence": "GTGCTCACGTGGGCTG", "relative binding free energy": 0.2}
{"sequence": "AGTGTCACGTGTTCTA", "relative binding free energy": 0.05}
{"sequence": "GTGAACACGTGCGTGT", "relative binding free energy": -0.08}
{"sequence": "TTGAACACGTGCGGTG", "relative binding free energy": -0.1}
{"sequence": "GGATGCACGTGCTGCG", "relative binding free energy": -0.1}
{"sequence": "AGACGCACGTGTAGGG", "relative binding free energy": -0.17}
{"sequence": "TTTTTCACGTGAACCG", "relative binding free energy": 0.57}
{"sequence": "GAGGGCACGTGTATGA", "relative binding free energy": 0.1}
{"sequence": "AGAGGCACGTGAGACG", "relative binding free energy": 0.1}
{"sequence": "CGTGTCACGTGGCTGT", "relative binding free energy": -0.1}
{"sequence": "AATGGCACGTGTTGAC", "relative binding free energy": -0.03}
{"sequence": "TCTGTCACGTGGGTGG", "relative binding free energy": -0.03}
{"sequence": "ATGTTCACGTGGCGGA", "relative binding free energy": 0.05}
{"sequence": "TTTCTCACGTGAGTGG", "relative binding free energy": 0.5}
{"sequence": "TGTGTCACGTGTGGAT", "relative binding free energy": 0.09}
{"sequence": "TCTTACACGTGGTTTT", "relative binding free energy": 0.07}
{"sequence": "TGATACACGTGATTGG", "relative binding free energy": 0.02}
{"sequence": "GGGAGCACGTGTGGTT", "relative binding free energy": 0.03}
{"sequence": "AGGCGCACGTGGTTTA", "relative binding free energy": -0.08}
{"sequence": "AATGACACGTGGTTAT", "relative binding free energy": 0.05}
{"sequence": "AGTTTCACGTGCGATT", "relative binding free energy": 0.3}
{"sequence": "TTTGACACGTGAACTT", "relative binding free energy": 0.37}
{"sequence": "GTATTCACGTGAGAGG", "relative binding free energy": 0.38}
{"sequence": "TGCTTCACGTGTTGGT", "relative binding free energy": 0.2}
{"sequence": "CTGGGCACGTGGATAT", "relative binding free energy": -0.07}
{"sequence": "GTTCTCACGTGGGTGA", "relative binding free energy": 0.19}
{"sequence": "GACAGCACGTGGAGGG", "relative binding free energy": -0.03}
{"sequence": "TATGACACGTGGGTCT", "relative binding free energy": -0.17}
{"sequence": "GCGTGCACGTGTAGGG", "relative binding free energy": -0.01}
{"sequence": "CTATTCACGTGTTGTA", "relative binding free energy": 0.12}
{"sequence": "TTCTGCACGTGCTTTA", "relative binding free energy": 0.01}
{"sequence": "TATATCACGTGTAGTT", "relative binding free energy": 0.2}
{"sequence": "TCATGCACGTGATTTT", "relative binding free energy": 0.22}
{"sequence": "ATGAGCACGTGAGTGC", "relative binding free energy": 0.22}
{"sequence": "CTAGACACGTGGGGGT", "relative binding free energy": -0.07}
{"sequence": "GCTGACACGTGTAGGG", "relative binding free energy": -0.02}
{"sequence": "CGTGACACGTGTGGCG", "relative binding free energy": 0.01}
{"sequence": "TTATACACGTGCAGTG", "relative binding free energy": 0.06}
{"sequence": "CAGGTCACGTGCGTTG", "relative binding free energy": 0.14}
{"sequence": "TCGCGCACGTGGGGTG", "relative binding free energy": -0.33}
{"sequence": "AGCTGCACGTGAAGGA", "relative binding free energy": 0.24}
{"sequence": "GTCTTCACGTGTTGGC", "relative binding free energy": 0.38}
{"sequence": "GTTTACACGTGACGTG", "relative binding free energy": 0.29}
{"sequence": "AATGGCACGTGGGGGG", "relative binding free energy": -0.25}
{"sequence": "CCTGACACGTGGGTGG", "relative binding free energy": -0.06}
{"sequence": "TACTTCACGTGCGGTG", "relative binding free energy": 0.24}
{"sequence": "CTTAGCACGTGATATG", "relative binding free energy": 0.04}
{"sequence": "TCGGGCACGTGATGTT", "relative binding free energy": 0.07}
{"sequence": "CGGTGCACGTGGTTTG", "relative binding free energy": -0.03}
{"sequence": "CTTGTCACGTGGGTTC", "relative binding free energy": 0.07}
{"sequence": "TAGCTCACGTGGTTTG", "relative binding free energy": 0.22}
{"sequence": "GGCGACACGTGCAGGG", "relative binding free energy": -0.05}
{"sequence": "TGATTCACGTGGGGAT", "relative binding free energy": 0.09}
{"sequence": "CGTTACACGTGTGGAT", "relative binding free energy": 0.04}
{"sequence": "GGAGTCACGTGCGATG", "relative binding free energy": 0.16}
{"sequence": "TGTAGCACGTGAGGGT", "relative binding free energy": 0.27}
{"sequence": "CATTTCACGTGCGGAG", "relative binding free energy": 0.46}
{"sequence": "GGAGACACGTGTGGAA", "relative binding free energy": 0.02}
{"sequence": "TGTGTCACGTGCTGCA", "relative binding free energy": 0.04}
{"sequence": "ATTTGCACGTGTAGCA", "relative binding free energy": -0.03}
{"sequence": "CGAGGCACGTGCTGGT", "relative binding free energy": -0.12}
{"sequence": "GTAAACACGTGTTTTT", "relative binding free energy": 0.07}
{"sequence": "GTTTTCACGTGGGGAC", "relative binding free energy": 0.28}
{"sequence": "CTCGTCACGTGGGTTA", "relative binding free energy": -0.09}
{"sequence": "GTGTACACGTGCTAGG", "relative binding free energy": -0.04}
{"sequence": "CTGTCCACGTGGTTGG", "relative binding free energy": -0.05}
{"sequence": "TGCAGCACGTGGGAAT", "relative binding free energy": -0.1}
{"sequence": "TTGTTCACGTGGTACT", "relative binding free energy": 0.16}
{"sequence": "TAGTCCACGTGTGGGG", "relative binding free energy": 0.08}
{"sequence": "GGTGTCACGTGTCCGG", "relative binding free energy": 0.17}
{"sequence": "TAGCCCACGTGGGTGT", "relative binding free energy": -0.32}
{"sequence": "GGTTTCACGTGAGAGT", "relative binding free energy": 0.38}
{"sequence": "AGATGCACGTGGGAAG", "relative binding free energy": -0.05}
{"sequence": "GTACGCACGTGTGAGT", "relative binding free energy": -0.05}
{"sequence": "GGTGTCACGTGGAGGT", "relative binding free energy": 0.14}
{"sequence": "AGGTGCACGTGTAGCT", "relative binding free energy": 0.01}
{"sequence": "TGTCTCACGTGGTCGT", "relative binding free energy": 0.05}
{"sequence": "AGTGGCACGTGTTGTT", "relative binding free energy": -0.06}
{"sequence": "GGGAGCACGTGGCGGG", "relative binding free energy": -0.03}
{"sequence": "GTTTCCACGTGGTGTG", "relative binding free energy": 0.09}
{"sequence": "AGGGCCACGTGGGGTT", "relative binding free energy": -0.17}
{"sequence": "AAGAGCACGTGGTCTT", "relative binding free energy": -0.13}
{"sequence": "TCGTTCACGTGTTGCT", "relative binding free energy": 0.4}
{"sequence": "GGGTTCACGTGTCATG", "relative binding free energy": 0.28}
{"sequence": "TTTGTCACGTGGCTGC", "relative binding free energy": 0.05}
{"sequence": "GGTTCCACGTGGGGTC", "relative binding free energy": 0.04}
{"sequence": "TTGTACACGTGGACGG", "relative binding free energy": 0.2}
{"sequence": "CGTAACACGTGTTCGT", "relative binding free energy": 0.2}
{"sequence": "AGTTGCACGTGGGCCG", "relative binding free energy": -0.24}
{"sequence": "GGAGTCACGTGCGTTG", "relative binding free energy": 0.14}
{"sequence": "GGTCTCACGTGTATTT", "relative binding free energy": 0.21}
{"sequence": "AGGATCACGTGCGGCG", "relative binding free energy": 0.18}
{"sequence": "GTGTGCACGTGGTATC", "relative binding free energy": -0.09}
{"sequence": "TAGAGCACGTGGCGGA", "relative binding free energy": -0.28}
{"sequence": "GGTACCACGTGGTTGG", "relative binding free energy": -0.1}
{"sequence": "TGTTTCACGTGACAGG", "relative binding free energy": 0.32}
{"sequence": "GTAATCACGTGGATTG", "relative binding free energy": 0.18}
{"sequence": "CAGTTCACGTGTAATG", "relative binding free energy": 0.45}
